Laboratory results: the supplement of paper PMC11417369
± gives the standard deviation of the averaged measurements. Some of the results follow.

system: PfAP2-I AP2 domain 3 (GST-tagged); assay: gcPBM binding intensity (ln(normalized median fluorescence intensity)); higher = stronger DNA binding
In short: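 An Agilent 4 × 180k array of primer-extended double-stranded 36-bp intergenic genomic probes, with negative controls, was incubated for 1 h with GST-tagged P. falciparum DNA-binding domains expressed in E. coli. Alexa488 anti-GST antibody detected bound protein, scanned at 488 nm. Binding intensity is the highest Masliner-normalised natural-log median intensity across replicate spots of either probe orientation.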

Sequence | gcPBM binding intensity (ln)
TTACTCATGAAAGATACACACATTCGTTATTTATAT [CACACA_site7517] | 7.63 ± 0.67
TAAATTATTATCCCCTCACACACAAAAATAAAAAGA [CACACA_site2886] | 8.56 ± 0.25
TATTTATAAACATACGCACACATTAATATATATATA [CACACA_site9314] | 9.14 ± 0.085
GAAGAAGTTTAAAAAGCACACAAAAAAAAAAAAAAA [CACACA_site9088] | 8.26 ± 0.66
CACAAAATAAATTAAACACACAACATCATATATGTA [CACACA_site846] | 7.49 ± 0.42
CTTGTAGATATAAAATGTACAAAAATAAATTGCACA [XGTACX_site4409] | 9.94 ± 0.7
AGATATTCTACTATGTGTACATATATATATATAATT [XGTACX_site5060] | 8.1 ± 0.18
ATTATTATTAATCTTGTGCACATATATTTTAATTAG | 10.6 ± 0.23
TATAAACGTATAATATGTACACACACATATATACAA [XGTACX_site1686] | 7.75 ± 0.27
ATTATATAGAATTGTACATGCGAATTGTATAACGAT [TGCATGCA_site125] | 7.89 ± 0.7
TATTTTTTTTTTTTTTTTTTTTTTATATATACATAT [CACACA_negctrl_site23] | 7.45 ± 0.54
AAAAAAAAAAAAAAAAATATATTTATGAAATAAAAA [TGCATGCA_negctrl_site262] | 8.63 ± 0.042
AATGGATATTTCTTTATATATATCTTATTTGATTAT [XGTACX_negctrl_site284] | 7.32 ± 0.45
TTTCTATTCCATTCAACACACAAAAATGTATGCTTT [CACACA_site1072] | 7.87 ± 0.49
TTTTTTTTTTTTTTGGTGCGTTTATATATAAATATA | 10.4 ± 0.86
GGAATTATATGAAATAAACACACATATGTAATATTA [CACACA_site8586] | 7.53 ± 0.67
AAAATCTAATATAATGCACACATAAAAAAAAAATCA [CACACA_site8871] | 11 ± 0.68
TACATCGACCTATGTACATGCAAATTATTTTTATTT [TGCATGCA_site182] | 7.92 ± 0.36
CTTTTAATATGTGTAGTGCATTTTTTTTTTTTTTTT [GTGCAC_site9727] | 10.19 ± 0.035
AAAAAAAAAAAAAACACACACAACACCCATACCTTA [CACACA_site3621] | 8.45 ± 0.45
GTCCTTCATCATATTTAACACACAGAGAAAAAGCGG [CACACA_site7979] | 8.4 ± 0.2
TAAATACAGAAACACACACACAAATATATACATACA [CACACA_site2880] | 7.64 ± 0.52

Sequence | gcPBM binding intensity (ln)
AATTCTTTTTTCAACACACACACACTAGAAAATATA [CACACA_site5681] | 8.1 ± 0.43
TTTATATATTATTAATGTACAAAATTTTTATTGCAT [XGTACX_site3329] | 7.95 ± 0.39
ACCTGGACAAAAATAAATAAATAAATAAATAAATGA [GTGCAC_negctrl_site238] | 7.88 ± 0.4
ACATTAAGACACATTGCACACGTGCACCCATAGAAA [CACACA_site8029] | 10.965 ± 0.007
TTTTGGATCATTTGTTGTACATATGCAAAAAAAAAA [XGTACX_site3157] | 8.25 ± 0.37
TATGATACATAATATACATGCATACACAACATTCAG [TGCATGCA_site487] | 7.87 ± 0.56
GATATGTGACGTTTGGTATTTTTGATGTTGGTAGGA [CACACA_negctrl_site1448] | 7.72 ± 0.61
GCCCAACCAAAATATACACACAGTTGAATGAATAAA [CACACA_site2597] | 7.73 ± 0.44
TATATTTGGAAATATTCTCAATTGGTACAAATAAAA [CACACA_negctrl_site1202] | 8.14 ± 0.2
TAAAAGAAATATACATGTACATAAATATATATATAT [XGTACX_site1276] | 9.085 ± 0.064
ATTTTTTTGTGTTTGGTACACACGTTATAAAAAATA [CACACA_site1345] | 8.13 ± 0.3
TTGGTAATAATTTGAGGTACACTGTATAAATTTTTT [XGTACX_site909] | 7.83 ± 0.46
AATAATAAATTATGGTGTACGCATTTGTATATATAC [XGTACX_site5417] | 8.16 ± 0.2
TTTTTTTCTTAAAGATGTACTTTTTTAAAATAATCT [XGTACX_site3663] | 7.76 ± 0.46
AAATGAAAATAAAGCAACAGAAATATAATGTATTAT [GTGCAC_negctrl_site508] | 7.96 ± 0.7
ACATTTTATACGATAAAATGTATAAGATTATGAAGA [TGCATGCA_negctrl_site476] | 7.67 ± 0.49
AAAATAATAACATTGTGTACATAAAAAGAAAACCTT [XGTACX_site840] | 7.96 ± 0.49
TTATGTCATAAATGCACACATATATATATACATATA [CACACA_site1588] | 9.8 ± 0.28
AGGCACGTGTTATATACACACATAATCAAATAAACT [CACACA_site7852] | 8.11 ± 0.61
TATGAATGGTTAAGTACACACATATTAATATATGTA [CACACA_site3490] | 7.76 ± 0.028
CTATCTACATAAACGTGTACCCACAAATAAATAAAT [XGTACX_site5210] | 8.89 ± 0.33
TTAACCTTTTGATATTGTACCCATAATCTAATACAA [XGTACX_site769] | 7.99 ± 0.61
